This is an account of results in paper PMC4336329 (PLoS ONE, 2015).

Hit rate of the full screen: of about 310,000 compounds, about 14,000 (4.5%) showed an effect of 50% or more. The effect is printed as a negative number. The list shows a part of the results.
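Also: peak tail current of the secondary pulse compared with the same well before compound.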

Sequence of human ether-à-go-go-related gene (hERG) potassium channel (Q12809 whole entry, looked up): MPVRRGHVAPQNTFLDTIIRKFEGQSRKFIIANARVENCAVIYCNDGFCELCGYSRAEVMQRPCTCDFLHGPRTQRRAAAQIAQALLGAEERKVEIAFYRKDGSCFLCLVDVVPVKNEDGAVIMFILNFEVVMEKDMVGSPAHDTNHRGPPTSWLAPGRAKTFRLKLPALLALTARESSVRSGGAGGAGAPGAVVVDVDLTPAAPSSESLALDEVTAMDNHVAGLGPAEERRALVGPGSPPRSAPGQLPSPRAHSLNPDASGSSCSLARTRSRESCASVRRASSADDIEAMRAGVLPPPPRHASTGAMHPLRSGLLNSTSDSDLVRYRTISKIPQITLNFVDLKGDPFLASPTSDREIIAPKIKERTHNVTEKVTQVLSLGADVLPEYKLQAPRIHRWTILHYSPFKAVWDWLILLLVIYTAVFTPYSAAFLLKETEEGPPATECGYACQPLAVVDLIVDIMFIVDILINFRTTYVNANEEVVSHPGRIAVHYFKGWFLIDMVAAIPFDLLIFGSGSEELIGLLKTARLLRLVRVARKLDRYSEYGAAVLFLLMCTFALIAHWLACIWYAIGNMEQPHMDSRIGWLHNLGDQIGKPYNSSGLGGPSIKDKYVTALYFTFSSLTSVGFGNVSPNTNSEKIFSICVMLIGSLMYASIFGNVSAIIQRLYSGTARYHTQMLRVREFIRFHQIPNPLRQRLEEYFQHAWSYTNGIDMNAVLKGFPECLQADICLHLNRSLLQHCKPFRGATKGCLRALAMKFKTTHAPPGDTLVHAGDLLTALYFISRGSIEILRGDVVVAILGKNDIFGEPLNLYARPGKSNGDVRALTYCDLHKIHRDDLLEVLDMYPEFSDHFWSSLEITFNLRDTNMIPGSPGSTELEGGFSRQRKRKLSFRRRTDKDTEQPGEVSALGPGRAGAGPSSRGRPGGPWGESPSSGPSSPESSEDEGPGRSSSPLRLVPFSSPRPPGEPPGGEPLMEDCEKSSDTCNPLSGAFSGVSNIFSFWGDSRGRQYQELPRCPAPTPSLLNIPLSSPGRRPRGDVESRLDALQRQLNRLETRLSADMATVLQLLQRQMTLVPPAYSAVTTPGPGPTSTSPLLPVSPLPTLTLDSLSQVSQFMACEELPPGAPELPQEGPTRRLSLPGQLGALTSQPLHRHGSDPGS

The experiment concerns the target human ether-à-go-go-related gene (hERG) potassium channel (human, UniProt Q12809). In words: primary screen, population patch clamp on CHO cells stably expressing hERG.
For `CC(=O)c1cc2c(ccc3ccccc32)oc1=O`, the “hERG current change (%, negative = inhibition) at 10uM” value amounted to 19.7%.
Next, `COC(=O)C1=C(C)N=C2SC(C)C(=O)N2C1/C=C/c1ccccc1` (stereo not shown): -17.8%; `CC(C)CC(=O)Nc1ccc(C(=O)COC(=O)C2CC(=O)N(Cc3ccccc3)C2)cc1` (stereo not shown): 10.7%; `COc1cc2c(cc1NC(=O)COC(=O)/C=C/c1ccccc1)oc1ccccc12`: 4.6%.
For the compound `O=C(Nc1ccccc1Cl)Nc1ccccc1Cl`, the “hERG current change (%, negative = inhibition) at 10uM” value is recorded as 0.0288%.
On to `S=C1SCN(Cc2ccco2)CN1Cc1ccco1`, for which the “hERG current change (%, negative = inhibition) at 10uM” value was -6.73%.
Next, `C=CCNC(=O)c1cc(C(=O)C(C)c2ncc(C(F)(F)F)cc2Cl)c[nH]1` (stereo not shown): 0.972%.
Next, `O=C(Cc1ccccc1)NCC(=O)N1CCCC1`: 19.2%; `CN(C)n1cccc1/C=C(\C#N)S(=O)(=O)c1cccc(Cl)c1`: 12.9%; `COc1cccc(-n2cnc(=O)c3cccnc32)c1`: 12.2%.
`CCOc1ccc(C(F)(F)F)cc1NC(=O)c1ccc(OC)c([N+](=O)[O-])c1`: the “hERG current change (%, negative = inhibition) at 10uM” value stood at 11%.
As for `COc1ccc2oc3ccccc3c(=O)c2c1`, the “hERG current change (%, negative = inhibition) at 10uM” value was determined as 11.9%.
Turning to `Cc1ccc(NC(=O)COc2ccc3oc4c(c3c2)CCCC4)nc1`, the “hERG current change (%, negative = inhibition) at 10uM” value was determined as 6.16%.
With `COc1ccc(-c2nc3ccccc3nc2-c2ccc(OC)cc2)cc1`, the “hERG current change (%, negative = inhibition) at 10uM” value stood at 12.2%.
With `CCOC(=O)c1ccc(NC(=O)CSc2nnc(CNC(=O)c3ccccc3F)o2)cc1`, the “hERG current change (%, negative = inhibition) at 10uM” value was 0.179%.
Next, `CCC(=O)N(C)CCc1cc2c(c(OC)c1/C=N/NC(=O)[C@H]1C[C@@H]1c1ccccc1)OCO2`: -37.5%; `Cl.OC(C#CCN1CCOCC1)(c1ccccc1)C1CC1` (stereo not shown): 24.8%.
For `CC#CCN1c2ccccc2[C@]23C[C@@H](C(=O)OC)N(C(=O)NCCBr)C2=NC(C(=O)OC)=C(C(=O)OC)[C@H]13`, the “hERG current change (%, negative = inhibition) at 10uM” value is 2.93%.
As to `COc1ccc(C(=O)/C=C/Nc2ccc(S(N)(=O)=O)cc2)cc1OC`, the “hERG current change (%, negative = inhibition) at 10uM” value was found to be 9.88%.
Consider `Cc1nc(N2CCC(C)CC2)c2c(C)c(C(=O)Nc3ccc(C(F)(F)F)cc3)sc2n1`, for which the “hERG current change (%, negative = inhibition) at 10uM” value turned out to be 21.8%.
Consider `O=C(NCCc1ccc(Cl)cc1)C1CCN(S(=O)(=O)c2cccc3nonc23)CC1`, for which the “hERG current change (%, negative = inhibition) at 10uM” value was -11.5%.
For `CC1CCCCC1NC(=S)NC(=O)c1ccccc1Br` (stereo not shown), the “hERG current change (%, negative = inhibition) at 10uM” value was found to be 1.8%.
Next, `COC(=O)c1cc(OC(=O)CCc2ccc(OC)c(OC)c2)cc(C(=O)OC)c1`: 10.6%; `COC(=O)c1ccc(N2CCCCC2)c(NC(=O)c2ccco2)c1`: -45.8%; `O=S(=O)(c1cccs1)N1CCN(c2ncccn2)CC1`: -23.2%.
On to `CC(=O)c1ccc2c3c(cccc13)CC2`, for which the “hERG current change (%, negative = inhibition) at 10uM” value stood at 2.96%.
With `Cc1ccc(S(=O)(=O)c2nc(-c3cccs3)oc2SCC(N)=O)cc1`, the “hERG current change (%, negative = inhibition) at 10uM” value is listed as 17.1%.
Next, `CCOC(=O)Cc1nnc(NC(=O)CC)s1`: 0.0452%.
With `Br.C=CCn1c(=N)n(CC(=O)O)c2ccccc21`, the “hERG current change (%, negative = inhibition) at 10uM” value is -6.07%.
Under `CC(/C=C/c1ccccc1)=N\NC(=O)Cn1cncn1` stands 5.96%; under `O=C(NCc1cccc(Cl)c1)c1cccc(C(F)(F)F)c1`, -0.522%; under `Cc1ccc(NC(=O)CNS(=O)(=O)c2ccc(F)cc2)cc1C`, 21.9%.
Next, `CCOCCCNC(=O)CCn1ccc2cc(S(=O)(=O)N3CCCC3)ccc21`: 13.8%; `O=C(COC(=O)/C=C/c1cccc(Cl)c1)Nc1cccc(S(=O)(=O)NC2=NCCC2)c1`: -45.4%.
On to `C/C(=N/NC(=O)c1cccs1)c1c(C)[nH]n(-c2nc3ccccc3s2)c1=O`, for which the “hERG current change (%, negative = inhibition) at 10uM” value was found to be 7.38%.
Next, `O=[N+]([O-])c1ccc(N2CCN(CCO)CC2)c2ncccc12`: -45.4%; `Cc1cc(C(=O)NCCCN2CCOCC2)n(-c2ccccc2)n1`: 19.3%; `O=CC1=C(c2ccccc2)Oc2ccccc2O1`: 6.03%.
For the compound `CCOC(=O)C1(Cc2cccc(OC)c2)CCCN(Cc2nccn2CC)C1` (stereo not shown), the “hERG current change (%, negative = inhibition) at 10uM” value is -30.8%.
With `COc1ccc2c(c1OC)C(=O)OC2Nc1ccc(S(=O)(=O)N=C(N)N)cc1` (stereo not shown), the “hERG current change (%, negative = inhibition) at 10uM” value is given as 16.4%.
Under `CCOC(=O)C1=C(c2ccccc2)N(C)C(=O)NC1c1ccc(OC(F)F)c(OC)c1` (stereo not shown) stands -22.6%; under `CCCCC(=O)NS(=O)(=O)c1ccc(N=NN2CCCCC2)cc1`, 5.3%; under `CN(C)CCn1ccc(O)c(Cc2ccc(Cl)cc2)c1=O`, 4.57%.
